What all share (experiment): cell-based or functional assay
One experiment deals with T1, activin A (UniProt P08476 311-426).
T1 sequence (looked up): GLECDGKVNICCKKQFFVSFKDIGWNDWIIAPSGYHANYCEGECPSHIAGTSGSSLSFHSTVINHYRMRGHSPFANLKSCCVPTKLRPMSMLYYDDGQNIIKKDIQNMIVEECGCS

In a further experiment the target is T2, GDF11 (UniProt O95390 299-407).
T2 sequence (looked up): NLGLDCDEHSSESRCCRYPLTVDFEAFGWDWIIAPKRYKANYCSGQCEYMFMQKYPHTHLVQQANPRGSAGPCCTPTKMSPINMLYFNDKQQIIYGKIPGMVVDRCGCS

For a further experiment, the target named is T3, BMP9 (UniProt Q9UK05 320-429).
T3 sequence (looked up): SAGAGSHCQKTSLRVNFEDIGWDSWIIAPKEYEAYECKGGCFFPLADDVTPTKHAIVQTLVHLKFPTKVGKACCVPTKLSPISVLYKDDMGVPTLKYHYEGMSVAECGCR

B1: ActRIIB(A24N)-Fc homodimer (Fc fusion)
chain: GRGENETRECIYYNANWELERTNQSGLERCEGEQDKRLHCYASWRNSSGTIELVKKGCWLDDFNCYDRQECVATEENPQVYFCCCEGNFCNERFTHLPEAGGPEVTYEPPPTAPTG[human IgG1 Fc and a few adjoining residues not printed]
With B1, the “IC50 of inhibition of ligand signaling, A204 CAGA12 luciferase reporter assay” value with activin A came out at 0.128 µg/mL; with GDF11, 0.099 µg/mL; with BMP9, 0.409 µg/mL.

Values taken from patent US20200055919A1 (ACCELERON PHARMA, published 2020).
